Laboratory results taken from paper PMC12136788.
The list shows a part of the results.

T1: UNK ZnF1-6 (called full-length) (human, UniProt Q9C0B0 30-357)
T1 sequence: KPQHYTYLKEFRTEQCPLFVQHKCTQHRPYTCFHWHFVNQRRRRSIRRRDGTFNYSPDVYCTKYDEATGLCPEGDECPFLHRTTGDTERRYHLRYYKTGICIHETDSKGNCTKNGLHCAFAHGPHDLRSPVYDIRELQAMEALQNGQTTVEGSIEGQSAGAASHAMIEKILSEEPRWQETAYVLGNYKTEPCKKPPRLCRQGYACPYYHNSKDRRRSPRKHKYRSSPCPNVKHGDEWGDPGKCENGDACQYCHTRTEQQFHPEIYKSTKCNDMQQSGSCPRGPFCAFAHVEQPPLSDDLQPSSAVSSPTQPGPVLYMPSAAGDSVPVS

B1: chr10:72011937:72012038:+|3pUTR|ENSG00000122863|msi1|total|mutant (ssRNA)
RNA: GGGAGUUCUACAGUCCGACGAUCCAUACACCGCAGGUGGUCACCGAGUUAUUUUCCAAAAGCUGAGGAACAUAAAGCAAAUUCCGGCUUUUGUCCUUCUGCAAUACAUGCACUUGAAAAUAAACAGAAAAGAGAUGUUUAAUACAACAGAGGAUUGAGCAUCA
B2: chr7:73478266:73478367:-|CDS|ENSG00000009954|unk|FALSE|unique (ssRNA)
RNA: GGGAGUUCUACAGUCCGACGAUCGAGUGGCUCGCCACUCAAAGUGAAGAACUCAAAGAAUUCCAAAUCUCCUGAAGAACAUCUAGAAGAAAUGAUGAAGAUGAUGUCGCCCAAUAAGCUGCACACUAACUUUCACAUUCCUAACAACAGAGGAUUGAGCAUCA
B3: chr10:30312946:30313047:-|3pUTR|ENSG00000107951|unk|FALSE|unique (ssRNA)
RNA: GGGAGUUCUACAGUCCGACGAUCUCUUAUUCACAUAUAAAUUAAAGUGGGUUGGUACUGAUAUCAAAAAAUGUUUAUGUUUUUAGAACAGACAUUUCAGUCACUGCAUUCUUAGGUAUUCCAAACCAAAUAUGAUGACAUCAACAACAGAGGAUUGAGCAUCA
B4: ENSG00000136451:be:win_851|CDS|ENSG00000136451|bound_else_gene|NA|bound_elsewhere_windowed (ssRNA)
RNA: GGGAGUUCUACAGUCCGACGAUCAAGGCAAGGUAUCAUGUAACAUCUGUGGGAAGCUCCUGAGUGCAGCAUACAUCACCAGCCACUUAAAGACUCAUGGGCAGAGCCAAAGUAUCAACUGUAAUACAUGUAAACAAGGCAUCACAACAGAGGAUUGAGCAUCA
B5: chr10:71816509:71816622:-|3pUTR|ENSG00000197746|msi1_unk|FALSE|overlapping (ssRNA)
RNA: GGGAGUUCUACAGUCCGACGAUCUGCCUACAUGUCCCUGGCUGUUGAGGCGCUGCUUCAGCCUGCACCCCUCCCUUGUCUCAUAGAUGCUCCUUUUGACCUUUUCAAAUAAAUAUGGAUGGCGAGCUCCUAGGCCUCUGGCUUCAACAGAGGAUUGAGCAUCA
B6: chr19:45711045:45711146:-|3pUTR|ENSG00000177051|msi1|total|mutant (ssRNA)
RNA: GGGAGUUCUACAGUCCGACGAUCGAAUUGGGGGCUGUCAGGUCACAGGUGGGAUCUGGCAUUUUUUUAUGACAGUCCAUUUCCCGAUGGUUUGCCUAUUAAAGAAGUGGGGGGGAAAUACUGUUUUCUCCUUAACCUCAAGCUCAACAGAGGAUUGAGCAUCA
B7: chr16:87831719:87831834:-|3pUTR|ENSG00000103257|msi1_unk|FALSE|overlapping (ssRNA)
RNA: GGGAGUUCUACAGUCCGACGAUCCCUGCGUUUGGAGGCCCCUGGGCUCUCACCCAGUCCCCACCCGCCUGCAGAGAGGGAACUAGGGCACCCCUUGUUUCUGUUGUUCCCGUGAAUUUUUUUCGCUAUGGGAGGCAGCCGAGGCAACAGAGGAUUGAGCAUCA
B8: chr1:36287001:36287112:+|CDS|ENSG00000054118|unk|FALSE|unique (ssRNA)
RNA: GGGAGUUCUACAGUCCGACGAUCCCCCUCCAGUCUGUGGUGGUGAGGCGGCGGUCACCCCGUCCUAGCCCCGUGCCAAAACCUAGUCCUCCACUUUCCAGCACAUCCCAGAUGGGCUCAACUCUGCCGAGUGGUGCCGGGUAUCAACAGAGGAUUGAGCAUCA
B9: ENSG00000070961:be:win_3851|3pUTR|ENSG00000070961|bound_else_gene|NA|bound_elsewhere_windowed (ssRNA)
RNA: GGGAGUUCUACAGUCCGACGAUCUUUUUGGGGGGUGGGAGAAAUGAACUGACAGAUAAACAGUAACUCAGCGUAAGUGACCUGUGGAUCAUCAGUAGUACCCAAGCAUGGUCCUGAACAGUGUAUUAGCAGAGCUUUAGUUUACAACAGAGGAUUGAGCAUCA
B10: chr21:25758092:25758193:+|CDS|ENSG00000154727|unk|FALSE|unique (ssRNA)
RNA: GGGAGUUCUACAGUCCGACGAUCGAAUUCAGCAUGACCGAUAUAGACCUCACCACACUCAACAUUUCGGGGAGAGAAUUAUGUAGUCUCAACCAAGAAGAUUUUUUUCAGCGGGUUCCUCGGGGAGAAAUUCUCUGGAGUCAUCAACAGAGGAUUGAGCAUCA
B11: chr11:60923185:60923286:+|3pUTR|ENSG00000110108|msi1|FALSE|unique (ssRNA)
RNA: GGGAGUUCUACAGUCCGACGAUCCAGAGAGCAGGGUGAGCUGCCAGCUGCCCCUCUCCACCAGGGUACCCUGUCUUGGUGGUUAGGGGCCACUUUUCCUUUGAGGCUCUAGUGGAGGUGGAUGUCCUUCUCUGCCAGGCUUGGCAACAGAGGAUUGAGCAUCA
B12: chr6:52500910:52501011:-|3pUTR|ENSG00000065308|msi1|total|mutant (ssRNA)
RNA: GGGAGUUCUACAGUCCGACGAUCUAAUAACUGCAAAUCGCAUGUUCAGCCAGCAGCCUCCUAAGCCCACCUUCCUCCCCCAUCCGAGAACACCCAUCCCCGGUGCUCUCCAGGCUGUGUCAUUGGCAGGGCUUCACAUGCAGGCAACAGAGGAUUGAGCAUCA
B13: chr9:132670296:132670397:+|5pUTR|ENSG00000125484|msi1|FALSE|bound_elsewhere (ssRNA)
RNA: GGGAGUUCUACAGUCCGACGAUCCCUCCCCUUUACCGCCCCGUGCGUUUCCUCAGCACUUUAGGAACUAAAGCCUGUCUGGGUAGCUCCCUAACAGGCUCUGGAGCUCAAUCCCUGGGCAGGGAAAAGGGGGUCCUCGGGGCUCAACAGAGGAUUGAGCAUCA
B14: ENSG00000107863:be:win_1451|CDS|ENSG00000107863|bound_else_gene|NA|bound_elsewhere_windowed (ssRNA)
RNA: GGGAGUUCUACAGUCCGACGAUCCAUCUGUUAGUUUUAGUAAUCAUAGAACUCGUUCAUGGGAUUAUAUUGAGGGACAGGAUGAAACCUUAGAAAAUGUCAAUUCUGGAACUCCAAUACCUGAUUCCAAUGGAGAGAAAAAACCAACAGAGGAUUGAGCAUCA
B15: chr9:99150529:99150630:+|3pUTR|ENSG00000106799|msi1|total|mutant (ssRNA)
RNA: GGGAGUUCUACAGUCCGACGAUCCAUUUGUUAUGUAUGCCGGAGUAAACGUUCGGUGGAUCCUCUGUCUUUGUAACUGAGGUCCGAGCCCGUGUGGUUUUGAGGUCUCACUACACUUUGAGGAAGGCAGCUUUUAAUUCAGUGCAACAGAGGAUUGAGCAUCA
B16: chr5:113019263:113019364:+|3pUTR|ENSG00000172795|msi1|total|mutant (ssRNA)
RNA: GGGAGUUCUACAGUCCGACGAUCCUCAACUGUGAAUGAAAUUCCGAAAGAUAAUUCUUCAGCAGUUGGUUGAUCCGAUGGGUCCGUGCUUUUGGAAUAUAUAACAGCCGACUUGUAUUCUUUAUGCACUAUACAUAUGAUACGCAACAGAGGAUUGAGCAUCA
B17: chr5:133076644:133076819:+|CDS|ENSG00000170606|unk|total|mutant (ssRNA)
RNA: GGGAGUUCUACAGUCCGACGAUCAAAAUUUGAUGAAGUGUCCGUAAAUCACUUCUGUGAAGAAUUUGGGAAGAAAUACAAGCCCGACAUUAAGUCCAAAAUCCGUGCAUUAUUACGACUCUCUCAGGAGUGUGAGAAACUCAACAACAGAGGAUUGAGCAUCA
B18: chr2:151248206:151248307:-|3pUTR|ENSG00000184898|msi1|total|mutant (ssRNA)
RNA: GGGAGUUCUACAGUCCGACGAUCUUUUUUUAAAGCAAAGAUUAAAUUCCCAUGUAAAACCUUCCUCCCUAUACAAAAAAGAACCGCAGCAUUUUUAUCUUCAAUGACAAAGAAUUGAGUCCAAGAAAAUACUGUAUAAACCUUCAACAGAGGAUUGAGCAUCA
B19: chr2:224511460:224511569:-|CDS|ENSG00000036257|unk|total|mutant (ssRNA)
RNA: GGGAGUUCUACAGUCCGACGAUCGAAAGCCAGAAAUUUUCCGCAGAAAACCGUGCUUCAGUAUAUAUAAAGAAAGCCGAAGCCCGAAUUAAUGAAGAAACCGAACGAGUGAUGCACUGCCUUGACAAAUCAACGGAAGAACCACAACAGAGGAUUGAGCAUCA
B20: chr1:229660051:229660152:+|3pUTR|ENSG00000135763|msi1|FALSE|bound_elsewhere (ssRNA)
RNA: GGGAGUUCUACAGUCCGACGAUCCUCAUUCAUAGUCUCAGUUACCCAGAUAACCUCGGUUGUCACCUUGGAGUAUCUUGUUGUAGUCCCUUUACUAUGUGUAUGUAUAUAGAUGUGCAUAUAAAUAUAUAUAGUAGCUAAAUUCAACAGAGGAUUGAGCAUCA
B21: chr1:93866283:93869944:-|three_prime_utr|ENSG00000067334|control|control|control (ssRNA)
RNA: GGGAGUUCUACAGUCCGACGAUCUUUAUUUACUUAUUAAAGACGUUUGGAAAACUAACACCAUCAUCUAAAUUAAUUUACCAUAGACUGGCCCUGUUCAUACAGGAAUUUGUAUUUGGAAAAAGUUGAUUUGAGAAUCGAUUACAACAGAGGAUUGAGCAUCA
B22: chr10:5457295:5457390:+|3pUTR|ENSG00000173848|msi1_unk|FALSE|overlapping (ssRNA)
RNA: GGGAGUUCUACAGUCCGACGAUCUCUGGAUUCAUCAUGGCUUUCUAAUACCAAUUGUAAUAUUUACAAUAUUCACCAAAACUUAGAAUUUUGCAAAUGCUGGAAUUCUGCCAGUGUUUCUUUGCUAAGCCUUGCAUGCAAAAUCAACAGAGGAUUGAGCAUCA

The binders below were run against T1, UNK ZnF1-6 (called full-length) (assay: nsRBNS (natural sequence RNA bind-n-seq); RBNS binding buffer (assumed for nsRBNS): 25 mM Tris pH 7.5, 150 mM KCl, 3 mM MgCl2, 0.01% Triton X-100, 500 ug/ml BSA, 20 U/ml SUPERase-In, 4 C; UNK is unkempt and MSI1 is Musashi-1; names of the RNAs are library labels; protein concentration not given here; high values mean tight binding).

| Binder | binding signal |
| --- | --- |
| B1 | 0.34 enrichment R |
| B2 | 0.258 enrichment R |
| B3 | 0.618 enrichment R |
| B4 | 0.5 enrichment R |
| B5 | 1.16 enrichment R |
| B6 | 0.615 enrichment R |
| B7 | 0.701 enrichment R |
| B8 | 0.741 enrichment R |
| B9 | 1.18 enrichment R |
| B10 | 0.864 enrichment R |
| B11 | 0.595 enrichment R |
| B12 | 0.771 enrichment R |
| B13 | 0.601 enrichment R |
| B14 | 1.8 enrichment R |
| B15 | 0.449 enrichment R |
| B16 | 0.279 enrichment R |
| B17 | 0.222 enrichment R |
| B18 | 0.497 enrichment R |
| B19 | 0.457 enrichment R |
| B20 | 1.07 enrichment R |
| B21 | 0.423 enrichment R |
| B22 | 0.525 enrichment R |
